Measurements taken from ChEMBL document CHEMBL4888484, “Replenishing the malaria drug discovery pipeline: Screening and hit evaluation of the MMV Hit Generation Library 1 (HGL1) against asexual blood stage Plasmodium falciparum ,using a nano luciferase reporter read-out” (2022).
Among all 150,000 compounds or so, about 540 (0.36%) showed an effect of 50% or more. The list shows a part of the results.

tested on: Plasmodium falciparum; assay: Primary screen in NF54 nanoGlo assay, in single point, at 2uM, 72h; a lower Z score goes with more inhibition; assay type: functional, Erythrocyte; conditions: timepoint 72 hour

Row | Compound | % Inhibition [%] | Z score
1 | C[C@H](NCc1nnc2n1CCCC2)c1ccc(-n2cnnn2)cc1 | 4 | -0.46
2 | O=C(Nc1cc(C(F)(F)F)ccc1N1CCOCC1)c1nn(-c2ccccc2)c(=O)c2ccccc12 | -15 | 2.63
3 | Cc1ccccc1[C@H]1CC(=O)Nc2c1c(C)nn2-c1nncc(-c2ccc(Cl)cc2)n1 | 25 | -1.36
4 | CC1CCC(NC(=O)N(C)CCN(C)C2CCN(C)CC2)CC1 (centres undefined) | 17 | -2.21
5 | CC(CC(O)c1ccco1)NC(=O)Nc1cccc2c1CCN2C (centres undefined) | -13 | 1.81
6 | COc1ccc(S(=O)(=O)N2CCN(C(=O)c3cnn4ccccc34)CC2)cc1C | -10 | 1.56
7 | Cc1cn2nc(C(=O)Nc3ccccc3)cc2c(N(C)Cc2ccccc2)n1 | 1 | -0.25
8 | Cc1ccc(-c2cc(F)c3c(c2)C[C@H](CN)O3)cc1F | 0 | -0.06
9 | O=C1CC2(CCC2)C(=O)N1Cc1cc2c(cc1Br)OCCO2 | -27 | 3.18
10 | COc1ccc(Oc2nc(N3CCN(C)CC3)nc3c2CN(C(=O)c2ccc(C(F)(F)F)cc2)CC3)cc1 | 4 | -0.35
11 | CCn1cc(S(=O)(=O)N2CC[C@H](c3noc(COCc4ccccc4)n3)C2)cn1 | -3 | 0.64
12 | O=C1NCCCC[C@@H]1n1ccnc1-c1ccccc1Cn1cccn1 | 4 | -0.52
13 | CC(NC(=O)C(NC(=O)c1ccc(Cl)cc1Cl)C(C)C)c1cc2ccccc2o1 (centres undefined) | -2 | 0.21
14 | Cc1ccc(C(=O)N2CCC(NC(=O)c3nccnc3NC(=O)c3ccccc3F)CC2)cc1 | -6 | 1.09
15 | Cn1cc(-c2ccc(-c3ccc4c(n3)NCCC4)cc2)cn1 | -6 | 1.27
16 | Cc1ncnc(N2CCC(N3CCOC3=O)CC2)c1C | 10 | -0.96
17 | CC(C)(C)c1cc(CN2C[C@@H]3CC[C@H]2CN(Cc2cscn2)C3)n[nH]1 | -7 | 0.99
18 | CN(Cc1ncccn1)S(=O)(=O)C[C@H]1COc2ccccc2O1 | 0 | -0.04
19 | Cc1ccc([C@H](C)NC(=O)N(C)CCc2noc(C(C)C)n2)cn1 | -15 | 2.07
20 | CCN(C(=O)c1ccc(C(C)C)cc1)[C@@H](C)CS(C)(=O)=O | 3 | -0.36
21 | CC(NC(=O)C1CC(=O)N(C2CCS(=O)(=O)C2)C1)C1CC2CCC1C2 (centres undefined) | -5 | 0.83
22 | COc1cccc([C@@H](C)CCCC(=O)N(C)Cc2c[nH]cn2)c1 | -5 | 0.67
